Measurements from the supplement of paper PMC4604168 (melanoma cell lines).
The other results are listed elsewhere or left out. Most values come without repeats; read them as rough.

Tested on: SkMel28
Assay: cell count relative to DMSO control; melanoma cells; higher = more viable cells
Conditions: library dose: low library concentration; 72 h
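Also: cell number obtained by counting DAPI-stained nuclei in high-throughput microscope images with image analysis software, screen run in 1,536-well plates.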

| Compound | cell count [%] |
| --- | --- |
| Nc1ccn([C@@H]2O[C@H](CO)[C@@H](O)C2(F)F)c(=O)n1 [gemcitabine] + O=C1NC(=O)/C(=C/c2ccc(-c3ccc(F)cc3O)o2)S1 [AS252424] (first compound 0.0004 µM, partner dose 1 µM) | 103 |
| Nc1ccn([C@@H]2O[C@H](CO)[C@@H](O)C2(F)F)c(=O)n1 [gemcitabine] + CC1(C)NC(=O)N(c2ccc([N+](=O)[O-])c(C(F)(F)F)c2)C1=O [nilutamide] (first compound 0.0004 µM, partner dose 1 µM) | 99.9 |
| Nc1ncn([C@H]2C[C@H](O)[C@@H](CO)O2)c(=O)n1 [decitabine] + NCC(=O)Nc1ccc(-n2nc(C(F)(F)F)cc2-c2ccc3c(ccc4ccccc43)c2)cc1 [OSU03012] (first compound 0.1 µM, partner dose 1 µM) | 81.6 |
| Nc1ccn([C@@H]2O[C@H](CO)[C@@H](O)C2(F)F)c(=O)n1 [gemcitabine] + CC(C)CCN1c2nc(Nc3cc(F)c(O)c(F)c3)ncc2N(C)C(=O)C1C [BID1870] (first compound 0.0004 µM, partner dose 0.2 µM) | 97.6 |
| CC(=O)c1c(C)c2cnc(Nc3ccc(N4CCNCC4)cn3)nc2n(C2CCCC2)c1=O [palbociclib] + COc1cc2c(Oc3ccc4[nH]c(C)cc4c3F)ncnc2cc1OCCCN1CCCC1 [cediranib] (first compound 0.04 µM, partner dose 0.4 µM) | 67.7 |
| Nc1nc(F)nc2c1ncn2[C@@H]1O[C@H](CO)[C@@H](O)[C@@H]1O [fludarabine] + O=C(O)C(=O)Nc1sc2c(c1C(=O)O)CCNC2 [TCS401] (first compound 0.2 µM, partner dose 1.66667 µM) | 80.5 |
| CC(=O)c1c(C)c2cnc(Nc3ccc(N4CCNCC4)cn3)nc2n(C2CCCC2)c1=O [palbociclib] + Cn1cc(/C=C2\C(=O)Nc3cccnc32)c2ccccc21 [GW441756] (first compound 0.04 µM, partner dose 0.4 µM) | 83.3 |
| Nc1ccn([C@@H]2O[C@H](CO)[C@@H](O)C2(F)F)c(=O)n1 [gemcitabine] + Oc1nc(-c2ccc(C(F)(F)F)cc2)nc2c1CSCC2 [XAV939] (first compound 0.0004 µM, partner dose 2 µM) | 112 |
| CC(=O)O[C@@]12CO[C@@H]1C[C@H](O)[C@@]1(C)C(=O)[C@H](O)C3=C(C)[C@@H](OC(=O)[C@H](O)[C@@H](NC(=O)OC(C)(C)C)c4ccccc4)C[C@@](O)([C@@H](OC(=O)c4ccccc4)[C@H]21)C3(C)C [Docetaxel] + Cn1c(=O)n(-c2ccc(C(C)(C)C#N)cc2)c2c3cc(-c4cnc5ccccc5c4)ccc3ncc21 [NVP-BEZ235] (first compound 0.0001 µM, partner dose 0.004 µM) | 39.9 |
| CC(=O)c1c(C)c2cnc(Nc3ccc(N4CCNCC4)cn3)nc2n(C2CCCC2)c1=O [palbociclib] + Cc1cc([N+](=O)[O-])ccc1NS(=O)(=O)c1cc(Cl)ccc1Cl [FH535] (first compound 0.04 µM, partner dose 1 µM) | 77 |
| CC(=O)O[C@@]12CO[C@@H]1C[C@H](O)[C@@]1(C)C(=O)[C@H](O)C3=C(C)[C@@H](OC(=O)[C@H](O)[C@@H](NC(=O)OC(C)(C)C)c4ccccc4)C[C@@](O)([C@@H](OC(=O)c4ccccc4)[C@H]21)C3(C)C [Docetaxel] + N#Cc1c(O)c2c(-c3ccc(-c4ccccc4O)cc3)csc2[nH]c1=O [A769662] (first compound 0.0001 µM, partner dose 2 µM) | 44.2 |
| CC(=O)O[C@@]12CO[C@@H]1C[C@H](O)[C@@]1(C)C(=O)[C@H](O)C3=C(C)[C@@H](OC(=O)[C@H](O)[C@@H](NC(=O)OC(C)(C)C)c4ccccc4)C[C@@](O)([C@@H](OC(=O)c4ccccc4)[C@H]21)C3(C)C [Docetaxel] + CN(C)S(=O)(=O)c1ccc2c(c1)/C(=C/c1cc3c([nH]1)CCCC3)C(=O)N2 [SU6656] (first compound 0.0001 µM, partner dose 0.4 µM) | 36.8 |
| Nc1ncn([C@H]2C[C@H](O)[C@@H](CO)O2)c(=O)n1 [decitabine] + CN(NC(=O)CC(=O)NN(C)C(=S)c1ccccc1)C(=S)c1ccccc1 [STA4783] (first compound 0.1 µM, partner dose 0.006 µM) | 17.1 |
| CC(=O)c1c(C)c2cnc(Nc3ccc(N4CCNCC4)cn3)nc2n(C2CCCC2)c1=O [palbociclib] + NCC(=O)Nc1ccc(-n2nc(C(F)(F)F)cc2-c2ccc3c(ccc4ccccc43)c2)cc1 [OSU03012] (first compound 0.04 µM, partner dose 1 µM) | 71 |
| CC(=O)O[C@@]12CO[C@@H]1C[C@H](O)[C@@]1(C)C(=O)[C@H](O)C3=C(C)[C@@H](OC(=O)[C@H](O)[C@@H](NC(=O)OC(C)(C)C)c4ccccc4)C[C@@](O)([C@@H](OC(=O)c4ccccc4)[C@H]21)C3(C)C [Docetaxel] + CC(C)CCN1c2nc(Nc3cc(F)c(O)c(F)c3)ncc2N(C)C(=O)C1C [BID1870] (first compound 0.0001 µM, partner dose 0.2 µM) | 46.5 |
| CC(=O)c1c(C)c2cnc(Nc3ccc(N4CCNCC4)cn3)nc2n(C2CCCC2)c1=O [palbociclib] + O=C(CCCCCCC(=O)Nc1ccccc1)NO [vorinostat] (first compound 0.04 µM, partner dose 0.08 µM) | 62.2 |
| CC(=O)c1c(C)c2cnc(Nc3ccc(N4CCNCC4)cn3)nc2n(C2CCCC2)c1=O [palbociclib] + CC1(C)NC(=O)N(c2ccc([N+](=O)[O-])c(C(F)(F)F)c2)C1=O [nilutamide] (first compound 0.04 µM, partner dose 1 µM) | 69.2 |
| Nc1ncn([C@H]2C[C@H](O)[C@@H](CO)O2)c(=O)n1 [decitabine] + O=C(O)c1ccc(-c2c[nH]c3ncc(-c4ccccc4)cc23)cc1C1CCCC1 [GSK650394] (first compound 0.1 µM, partner dose 0.16 µM) | 86.1 |
| CC(=O)O[C@@]12CO[C@@H]1C[C@H](O)[C@@]1(C)C(=O)[C@H](O)C3=C(C)[C@@H](OC(=O)[C@H](O)[C@@H](NC(=O)OC(C)(C)C)c4ccccc4)C[C@@](O)([C@@H](OC(=O)c4ccccc4)[C@H]21)C3(C)C [Docetaxel] + C=CCn1c(=O)c2cnc(Nc3ccc(N4CCN(C)CC4)cc3)nc2n1-c1cccc(C(C)(C)O)n1 [MK1775] (first compound 0.0001 µM, partner dose 0.02 µM) | 35.7 |
| Nc1nc(F)nc2c1ncn2[C@@H]1O[C@H](CO)[C@@H](O)[C@@H]1O [fludarabine] + Cc1cc([N+](=O)[O-])ccc1NS(=O)(=O)c1cc(Cl)ccc1Cl [FH535] (first compound 0.2 µM, partner dose 1 µM) | 58.1 |
| CC(=O)O[C@@]12CO[C@@H]1C[C@H](O)[C@@]1(C)C(=O)[C@H](O)C3=C(C)[C@@H](OC(=O)[C@H](O)[C@@H](NC(=O)OC(C)(C)C)c4ccccc4)C[C@@](O)([C@@H](OC(=O)c4ccccc4)[C@H]21)C3(C)C [Docetaxel] + O=S(=O)(c1ccccc1)N(CC(F)(F)F)c1ccc(C(O)(C(F)(F)F)C(F)(F)F)cc1 [T0901317] (first compound 0.0001 µM, partner dose 1.4 µM) | 44.5 |
| CC(=O)c1c(C)c2cnc(Nc3ccc(N4CCNCC4)cn3)nc2n(C2CCCC2)c1=O [palbociclib] + CC(C)(C)c1cnc(CSc2cnc(NC(=O)C3CCNCC3)s2)o1 [SNS-032] (first compound 0.04 µM, partner dose 0.01 µM) | 71.7 |
| CC(=O)O[C@@]12CO[C@@H]1C[C@H](O)[C@@]1(C)C(=O)[C@H](O)C3=C(C)[C@@H](OC(=O)[C@H](O)[C@@H](NC(=O)OC(C)(C)C)c4ccccc4)C[C@@](O)([C@@H](OC(=O)c4ccccc4)[C@H]21)C3(C)C [Docetaxel] + CO[C@@H]1[C@H](N(C)C(=O)c2ccccc2)C[C@H]2O[C@]1(C)n1c3ccccc3c3c4c(c5c6ccccc6n2c5c31)C(=O)NC4 [Midostaurin] (first compound 0.0001 µM, partner dose 0.08 µM) | 35 |
| Nc1nc(F)nc2c1ncn2[C@@H]1O[C@H](CO)[C@@H](O)[C@@H]1O [fludarabine] + COc1ccc2c(c1)CCC1C2CCC2(C)C(NCCCCCCN3C(=O)C=CC3=O)CCC12 [U73122] (first compound 0.2 µM, partner dose 0.4 µM) | 82.3 |
| CC(=O)c1c(C)c2cnc(Nc3ccc(N4CCNCC4)cn3)nc2n(C2CCCC2)c1=O [palbociclib] + Cn1c(Nc2ccc(C(F)(F)F)cc2)nc2cc(Oc3ccnc(-c4ncc(C(F)(F)F)[nH]4)c3)ccc21 [CHIR265] (first compound 0.04 µM, partner dose 0.08 µM) | 61.8 |
| Nc1ccn([C@@H]2O[C@H](CO)[C@@H](O)C2(F)F)c(=O)n1 [gemcitabine] + O=c1cc(-c2cccc3c2Sc2ccccc2S3)oc(N2CCOCC2)c1 [KU55933] (first compound 0.0004 µM, partner dose 1 µM) | 95.3 |
